From patent US20250026844A1 (SHANDONG SIMCERE BIOPHARMACEUTICAL, published 2025) come the findings set out here.

Assay [1] concerns the target T1, human BCMA on cells (human, UniProt Q02223 1-184).
T1 construct: whole, on cells; also called H929 cells; U266 cells
T1 sequence (looked up): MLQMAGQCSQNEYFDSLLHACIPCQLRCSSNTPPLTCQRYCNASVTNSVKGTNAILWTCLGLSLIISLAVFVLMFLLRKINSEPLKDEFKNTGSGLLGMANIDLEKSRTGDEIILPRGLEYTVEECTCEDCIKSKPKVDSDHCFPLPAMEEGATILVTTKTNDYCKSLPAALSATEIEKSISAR
The assay is described as follows: FACS, H929 cells.

The target of assay [2] is T1, human BCMA on cells. The assay is described as follows: FACS, U266 cells. Background: A flow cytometer gives signals particle by particle.
Assay [3] addresses T2, human BCMA-His protein (human, UniProt Q02223 1-54).
T2 construct: Bought protein; also called human BCMA protein; huBCMA-His; not shown: His tag
T2 sequence (looked up): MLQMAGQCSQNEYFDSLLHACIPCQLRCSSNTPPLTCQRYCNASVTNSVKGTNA
The assay is described as follows: SPR (Biacore), antibody captured on Protein A chip, BCMA-His in solution. (Surface plasmon resonance follows binding to a sensor surface in real time, without labels.)

For assay [4], the target named is T1, human BCMA on cells. The assay is described as follows: FACS, H929 cells. This is another data set of the same source.
Assay [5] concerns the target T1, human BCMA on cells. In words: FACS, U266 cells. This is another data set of the same source.
The target of assay [6] is T2, human BCMA-His protein. In words: SPR (Biacore), antibody captured on Protein A chip, BCMA-His in solution. This is another data set of the same source.
For assay [7], the target named is T1, human BCMA on cells. The assay is described as follows: FACS, H929 cells. The source holds these as a separate data set.
For assay [8], the target named is T1, human BCMA on cells. The assay is described as follows: FACS, U266 cells. This is another data set of the same source.
For assay [9], the target named is T2, human BCMA-His protein. In words: SPR (Biacore), antibody captured on Protein A chip, BCMA-His in solution. The source holds these as a separate data set.
In assay [10] the target is T1, human BCMA on cells. The assay is described as follows: FACS, H929 cells; FACS, H929 cells.
In assay [11] the target is T1, human BCMA on cells. The assay is described as follows: FACS, H929 cells. The source holds these as a separate data set.
The target of assay [12] is T1, human BCMA on cells. The assay is described as follows: FACS, U266 cells. The source holds these as a separate data set.

Like-named read-outs stand apart in the source and are kept apart here.

B1: BCMA-Lab18 (Fc fusion)
heavy: QVQLVESGGRLVQPGESLRLSCVASGFTFSSSAMSWARQAPGKGLEWMSGIYPDGTPVYADSMKGRFTVSRDNAKNMVYLQMNSLKPEDTAVYYCAVGIRLSDYQGQRRQLLGQGTQVTVSS[human IgG1 Fc with C220S (EU numbers) skipped]
In the case of B1, in the assay with human BCMA on cells [1], the EC50 is 2.79 nM and the “Maximum mean fluorescence intensity” value was 5270 MFI. For the same molecule, in the assay with human BCMA on cells [2], it took 1.76 nM to reach a half-maximal effect (EC50) and the “Maximum mean fluorescence intensity” value worked out at 1420 MFI. In the assay with human BCMA-His protein [3], this molecule gave a Kd of 1.01 nM, a koff of 0.00206 s⁻¹ and a kon of 2.04e+06 M⁻¹ s⁻¹.

B2: BCMA-Lab16 (Fc fusion)
heavy: QLQLVESGGGLVQPGESLRLSCTGSGFTLAYYMIGWFRQAPGKEREGLSCISPADGSTYYADSVKGRFTISRDNAKNVVYLQMNNLKPEDTGVYYCAAGNEAAITWGFGPYEYDQWGQGTQVTVSS[human IgG1 Fc with C220S (EU numbers) skipped]
For B2, in the assay with human BCMA on cells [1], the EC50 stood at 3.51 nM and the “Maximum mean fluorescence intensity” value was determined as 5000 MFI. Further, in the assay with human BCMA on cells [2], a half-maximal effect (EC50) was put at 1.48 nM and the “Maximum mean fluorescence intensity” value worked out at 1400 MFI. In the assay with human BCMA-His protein [3], binding was put at a Kd of 0.558 nM, the koff was determined as 0.00157 s⁻¹ and the kon is 2.82e+06 M⁻¹ s⁻¹.

B3: BCMA-Lab08 (Fc fusion)
heavy: QVQLVESGGGLVQPGGSLRLSCTDSGFTLNYYMIGWFRQAPGKEQEGLSSISAGDGSTYYADSVKGRFTISRDYAKNTVYLEMNDLKPEDTGVYYCAAGNEGAITWGFGPYEYDYWGQGTQVTVSS[human IgG1 Fc with C220S (EU numbers) skipped]
notes: VHH-hFc recombinant candidate antibody; no linker stated
Turning to B3, in the assay with human BCMA on cells [4], a half-maximal effect (EC50) was put at 3.34 nM and the “Maximum mean fluorescence intensity” value came out at 2770 MFI. Further, in the assay with human BCMA on cells [5], the EC50 is 5.14 nM and the “Maximum mean fluorescence intensity” value was 693 MFI. In the assay with human BCMA-His protein [6], this molecule had a Kd of 20.8 nM, a dissociation rate constant (koff) of 0.275 s⁻¹ and a kon of 1.32e+07 M⁻¹ s⁻¹.

B4: BCMA-Lab14 (Fc fusion)
heavy: EVQVVESGGGLVQPGGSLRLSCAASGSIFNIYAMGWYRQAPGKQRELVAAITSGGSTYYRESVKGRFTISRDNAKNTMYLQMNSLKPEDTAVYYCNVAPWGDYDGAADFDSWGQGTQVTVSS[human IgG1 Fc with C220S (EU numbers) skipped]
As for B4, in the assay with human BCMA on cells [1], the midpoint of the response, the EC50, lay at 5.6 nM and the “Maximum mean fluorescence intensity” value is 4960 MFI. In the assay with human BCMA on cells [2], the EC50 amounted to 3.5 nM and the “Maximum mean fluorescence intensity” value was found to be 1300 MFI. In the assay with human BCMA-His protein [3], this molecule showed a dissociation constant Kd of 0.56 nM, a koff of 0.00248 s⁻¹ and a kon of 4.43e+06 M⁻¹ s⁻¹.

B5: BCMA-Lab01 (Fc fusion)
heavy: QVQLVESGGGLVQPGGSLRLSCSGSGFTLDYYMIGWFRQAPGKEREGLSSISPADGSTYYADSVKGRFTISRDSAKNTVYLQMNNLKPEDTALYYCAAGNEATISWGFGPWEYDYWGQGTQVTVSS[human IgG1 Fc with C220S (EU numbers) skipped]
notes: as for B3
B5: the EC50 was found to be 2.82 nM with human BCMA on cells [4], 1.8 nM with human BCMA on cells [5], 3.05 nM with human BCMA on cells [7] and 3.07 nM with human BCMA on cells [8]. Moreover, the “Maximum mean fluorescence intensity” value with human BCMA on cells [4] worked out at 6980 MFI; in the assay with human BCMA on cells [5], 3140 MFI; in the assay with human BCMA on cells [7] it was 10000 MFI; with human BCMA on cells [8], 1750 MFI. For the same molecule, the Kd in the assay with human BCMA-His protein [6] amounted to 0.527 nM; in the assay with human BCMA-His protein [9] it was 0.533 nM. In addition, the figures for the koff with human BCMA-His protein [6] and with human BCMA-His protein [9] were 0.000702 s⁻¹ and 0.000681 s⁻¹, respectively. Further, the values for the kon with human BCMA-His protein [6] and with human BCMA-His protein [9] were 1.33e+06 M⁻¹ s⁻¹ and 1.28e+06 M⁻¹ s⁻¹, respectively.

B6: BCMA-Lab03 (Fc fusion)
heavy: EVQVVESGGGLVQPGGSLRLSCAGSGFTLAHYMIGWFRQAPGKEREGLSSISPADGSTYYADSVKGRFTISRDNAKNTVYLQMNSLKPEDTALYYCAAGNEATISWGFGPYEYDYWGQGTQVTVSS[human IgG1 Fc with C220S (EU numbers) skipped]
notes: as for B3
Regarding B6, in the assay with human BCMA on cells [4], the EC50 is 5.36 nM and the “Maximum mean fluorescence intensity” value was determined as 7760 MFI. In addition, in the assay with human BCMA on cells [5], the EC50 came out at 7.05 nM and the “Maximum mean fluorescence intensity” value is 1280 MFI. In the assay with human BCMA-His protein [6], this molecule had a Kd of 3.79 nM, a koff of 0.00315 s⁻¹ and a kon of 829000 M⁻¹ s⁻¹.

B7: BCMA-Lab04 (Fc fusion)
heavy: EVQVVESGGGLVQPGGSLRLSCAGSGFTLAYYMIGWFRQAPGKEREGLSSISPADGSTYYADSVKGRFTISRDNAKNTVYLQMNSLKPEDTALYYCAAGNEAAITWGFGPYEYDYWGQGTQVTVSS[human IgG1 Fc with C220S (EU numbers) skipped]
notes: as for B3
Take B7: in the assay with human BCMA on cells [4], it took 7.72 nM to reach a half-maximal effect (EC50) and the “Maximum mean fluorescence intensity” value was 6900 MFI. Further, in the assay with human BCMA on cells [5], the EC50 came to 3.93 nM and the “Maximum mean fluorescence intensity” value was found to be 2510 MFI. In the assay with human BCMA-His protein [6], this molecule showed a Kd of 3.22 nM, a koff of 0.00269 s⁻¹ and a kon of 836000 M⁻¹ s⁻¹.

B8: BCMA-Lab09 (Fc fusion)
heavy: EVQVVESGGGLVQPGGSLRLSCAASGFTFSSSAMSWARQAPGKGLEWVSGIYPDGSAEYTDSMKGRFTITRDNAKNTVYLQMNSLKPEDTAVYYCAIGRGPSIQAMFRPGGWGQGTQVTVSS[human IgG1 Fc with C220S (EU numbers) skipped]
Regarding B8, a half-maximal response with human BCMA on cells [10] (EC50) required 44.1 nM. In the assay with human BCMA-His protein [3], this molecule had a Kd of 79.7 nM, an off-rate (koff) of 0.00399 s⁻¹ and a kon of 50000 M⁻¹ s⁻¹.

B9: BCMA-Lab12 (Fc fusion)
heavy: QLQLVESGGGLVQAGGSLRLSCEASGSIFSINAIGWFRQAPGKEREGVSCISRSDGKTYYADSVKGRFTISRDNAKNTVYLQMNSLKPEDTAVYYCATDPSTRYGCYDPALFDSWGQGTQVTVSS[human IgG1 Fc with C220S (EU numbers) skipped]
With B9, in the assay with human BCMA on cells [1], the EC50 is 9.36 nM and the “Maximum mean fluorescence intensity” value stood at 4570 MFI. Further, in the assay with human BCMA on cells [2], a half-maximal response (EC50) required 4.29 nM and the “Maximum mean fluorescence intensity” value is 858 MFI. Moreover, in the assay with human BCMA-His protein [3], the Kd was found to be 14.9 nM, the koff was found to be 0.0103 s⁻¹ and the kon came out at 692000 M⁻¹ s⁻¹.

B10: HPN217-hHcAb (Fc fusion)
heavy: EVQLVESGGGLVQPGRSLTLSCAASTNIFSISPYGWYRQAPGKQRELVAAIHGTSTLYADSVKGRFTISRDNAKNSIYLQMNSLRPEDTALYYCNKVPWGDYHPGNVYWGQGTQVTVSS[human IgG1 Fc with C220S (EU numbers) skipped]
notes: no linker stated
Turning to B10, the EC50 in the assay with human BCMA on cells [11] amounted to 2.24 nM. Further, the EC50 with human BCMA on cells [12] came to 1.83 nM. Also, in the assay with human BCMA on cells [1], the response was half-maximal at 4.12 nM (EC50) and the “Maximum mean fluorescence intensity” value was 5020 MFI. In addition, in the assay with human BCMA on cells [2], the EC50 is 2.8 nM and the “Maximum mean fluorescence intensity” value was 1260 MFI. For the same molecule, in the assay with human BCMA-His protein [3], the dissociation constant (Kd) is 1.17 nM, the koff was found to be 0.0031 s⁻¹ and the on-rate constant (kon) was determined as 2.64e+06 M⁻¹ s⁻¹.

B11: BCMA-Lab05 (Fc fusion)
heavy: QVQLVESGGGLVQPGGSLRLSCAASGFTLAYYMIGWFRQAPGKEREGVSSISSGTGSTYYANSVKDRFTISRDNAANKVYLEMNSLKPEDTAIYYCAAGNEATITWGFGPYEYDYWGQGTQVTVSS[human IgG1 Fc with C220S (EU numbers) skipped]
notes: as for B3
In the case of B11, in the assay with human BCMA on cells [4], the EC50 was found to be 1.42 nM and the “Maximum mean fluorescence intensity” value was 3190 MFI. For the same molecule, in the assay with human BCMA on cells [5], the EC50 worked out at 3.63 nM and the “Maximum mean fluorescence intensity” value came out at 714 MFI.

For orientation: EC50 means the concentration at which the effect is half-maximal. A word on the Kd: it is the equilibrium constant for the complex coming apart. Lower therefore signals tighter binding. What is called koff is the rate constant with which the complex falls apart. A lower koff goes with slow dissociation. What is called kon is the second-order rate constant of association. A lower kon goes with slower complex formation.
